About 7,600 (2.4%) of roughly 320,000 compounds were called active. The inconclusive results got no clear call from the source; some entries with a clear call stand among them for comparison. Calls come from the whole dose curve; as a rule, active = well fitted activation curve with a large enough effect; inconclusive = small, poorly fitted or top-dose-only effect; inactive = no such curve, though single readings can be large or run the other way. A potency beside an inconclusive call is a rough fit, not a confirmed value.
Assay: qHTS Assay for NPC1 Promoter Activators; note: nearly all actives have a fitted effect of over 60% in size; for activation: % of control where 0% means no effect
Settings: Huh7 NPC1 promoter luciferase reporter, 24 h; series mostly up to 9.22 µM; activation: at the top concentration
Outline: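 Luminescence read-out of NPC1 promoter-driven luciferase in stably transfected Huh7 cells; compounds delivered in DMSO and left 24 h at 37C, 5% CO2, qHTS titration format.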
Potency is the fitted concentration of half-maximal effect; tags give direction and shape of the fitted curve.

Potency, inconclusive:
c1cncc(-c2nc3c(ccc4ccccc43)[nH]2)c1 3.16 µM [activator, single point], Cc1cccnc1Nc1nc(-c2ccc(O)cc2)cs1 4.47 µM [activator, single point], CC(=O)c1cccc(NC(=S)NC(=O)c2cccc(C)c2)c1 3.55 µM [activator, single point], O=C(N/N=C1\CCc2ccccc21)c1ccncc1 3.16 µM [activator, single point], c1ccc(Cc2nnc(-c3ccccc3)o2)cc1 2.51 µM [activator, partial curve], O=C(N/N=C\c1ccccc1F)c1ccc(-c2ccccc2)cc1 3.16 µM [activator, partial curve], COc1ccccc1NC(=O)CSc1nnc(-c2ccoc2C)o1 3.98 µM [activator, single point], Cc1cc(N/N=C/c2ccc3c(c2)OCO3)nc2ccccc12 2.51 µM [activator, partial curve], CCCC(=O)N1CCN(c2nc3ccc(Cl)cc3s2)CC1 1.26 µM [activator, partial curve], COc1ccc(C(=O)OCCc2ccc(O)cc2)cc1 3.98 µM [activator, single point], CCN(CC(=O)Nc1ccc(Br)cc1)C(=O)c1nc2nc(C)cc(C)n2n1 3.98 µM [activator, single point], COc1ccc(/C=N/Nc2nc3ccccc3[nH]2)c(OC)c1OC 1.41 µM [activator, partial curve], O=c1c(=Nc2ccccc2O)c(=O)c2ccccc12 2.82 µM [activator, partial curve], Cc1ccc(Nc2ncccc2C(=O)O)cc1C 2.82 µM [activator, partial curve], CCc1nnc(NC(=O)CSc2ccc(-c3ccc(-n4cccn4)cc3)nn2)s1 2.82 µM [activator, partial curve], CC1CCN(c2ccc(-c3ccc(NC(=O)c4ccco4)cc3)nn2)CC1 3.55 µM [activator, partial curve], O=C(NCC(=O)N1CCCC1)c1ccccc1F 3.55 µM [activator, partial curve], COc1ccc(-c2cc(O)cc(O)c2)cc1 3.98 µM [activator, single point], CCCCCc1ccc(-c2cn(Cc3ccc(C)cc3)nn2)cc1 3.55 µM [activator, partial curve], O=C(Nc1ccccc1C(=O)N/N=C/c1ccccc1)c1ccco1 5.62 µM [activator, single point], CC(C)C1(CCNC(=O)c2cccs2)CCOC(C)(C)C1 (stereo unspecified) 1.26 µM [activator, single point], COc1ccc(/C=N/Nc2ccccn2)cc1O 5.62 µM [activator, single point], COc1cccc(NC(=O)c2ccccc2-c2nc(-c3cccc(C)c3)no2)c1 3.55 µM [activator, single point], CCOC(=O)/C(=C/c1ccc(N2CCC(c3ccccc3)=N2)cc1)C(C)=O 2.24 µM [activator, partial curve], COc1ccc(NC(=O)COc2ccc(/C=N/O)cc2OC)cc1 3.55 µM [activator, single point], Cc1sc2nc3ccc(N4CCCCC4)nn3c(=O)c2c1C 5.62 µM [activator, single point]

Potency, active:
NC(=O)c1c(NC(=O)c2ccccc2)sc2c1CCCC2 3.98 µM, COc1ccc(C(=O)Nc2cc(C)on2)cc1 2 µM, CC1CC(C)CN(c2ncnc3c2cnn3-c2ccc(Cl)cc2)C1 (stereo unspecified) 2 µM, CC(=O)c1ccc(OCc2cc(C(=O)N(C)CCOc3ccc(C)cc3)no2)cc1 2.51 µM, O=C1CC(/C=C/c2ccccc2)=Nc2ccccc2N1 2 µM, Cc1ccc(-c2ccc(NC(=O)C3C4C=CC(C4)C3C(=O)O)cc2)o1 (stereo unspecified) 3.55 µM, O=C(CCc1ccccc1)Nc1ccc2ccccc2n1 3.16 µM, O=C(Nc1ccc(C(=O)N2CCCCC2)cc1)Nc1cccc(Cl)c1 3.98 µM, COC(=O)c1ccc(NC(=O)Cn2nnc3ccccc32)cc1 3.55 µM, Cc1ccc2nc(-c3ccccc3)cn2c1 0.112 µM, CC(=O)Nc1ccc(-c2cc(N)n(-c3ccccc3)n2)cc1 2.24 µM, CCCC(=O)Nc1ccc(-c2nc3cc(C)ccc3o2)cc1 0.501 µM, COc1ccc(/C=C/C(=O)Nc2ccccc2C(=O)O)cc1 0.447 µM

activation, inactive:
Cc1ccccc1OCc1nnc(SCC(=O)Nc2ccc3c(c2)OCO3)n1C -3.04%, CC(C)(C)C1CCC(C(=O)Nc2ccc(N3CCOCC3)cc2N2CCOCC2)CC1 (stereo unspecified) -1.55%, O=C(O)Cn1c(=O)c2c3c(sc2n(Cc2ccc(Cl)cc2Cl)c1=O)CCCC3 -1.72%, CCOc1cccc2c1OC(c1cc(OC)c(OC)c(OC)c1)N1N=C(c3ccc(C)o3)CC21 (stereo unspecified) 20.8%, O=C(CCCCCCCC(=O)c1ccccc1)c1ccccc1 10.3%, COc1ccc(/C=C2/C(=O)ON=C2c2ccccc2)cc1OC -6.13%, O=[N+]([O-])c1ccc(-c2nc(=S)c3c(o2)CCCC3)cc1 30%, CC1CCC(NC(=O)CC(NC(N)=O)c2ccccc2Cl)CC1 (stereo unspecified) 14.2%, COc1ccccc1-n1c(C)cc(/C=C2\C(=N)N3N=C(CC(=O)N4CCOCC4)SC3=NC2=O)c1C 4.17%, Cn1cnc([N+](=O)[O-])c1N=C(N)N -3.24%, CC(=O)Nc1sc(/C(C#N)=C/c2ccc(Cl)c(Cl)c2)nc1-c1ccc(C)cc1 0.494%, COc1ccc(CNC(=O)C(=O)NCCC2CCCCN2S(=O)(=O)c2cccs2)cc1 (stereo unspecified) 0.409%
